Source: the supplement of paper PMC8728848
This is one part of the list.

Columns and labels:
Assay in all cases: glycan array binding signal (z-score within array); higher = stronger binding
Conditions in all cases: glycan notation: IUPAC condensed, linker removed
Gal(b1-4)Glc6S = target: Gal(b1-4)Glc6S
Outline: (§1)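 Glycan array binding is given as a within-array Z-score, which can be read as non-binding when negative. The arrays, 3228 of them, came from the Consortium for Functional Glycomics database and were retained only where the protein sequence was available. Z-scores were averaged across arrays of the same protein sequence at different concentrations or buffers and across linkers.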

Gal(b1-4)GlcNAc = target: Gal(b1-4)GlcNAc
Outline: as §1

[1] = target: Gal(b1-4)GlcNAc(a1-6)Gal(b1-4)GlcNAc
Outline: as §1

Gal(b1-4)GlcNAc(b1-2)Man = target: Gal(b1-4)GlcNAc(b1-2)Man
Outline: as §1

[2] = target: Gal(b1-4)GlcNAc(b1-2)Man(a1-3)Man(b1-4)GlcNAc(b1-4)GlcNAc
Outline: as §1

[3] = target: Gal(b1-4)GlcNAc(b1-2)Man(a1-3)[Gal(b1-4)GlcNAc(b1-2)Man(a1-6)]Man(b1-4)GlcNAc(b1-4)GlcNAc
Outline: as §1

[4] = target: Gal(b1-4)GlcNAc(b1-2)Man(a1-3)[Gal(b1-4)GlcNAc(b1-2)Man(a1-6)]Man(b1-4)GlcNAc(b1-4)[Fuc(a1-6)]GlcNAc
Outline: as §1

[5] = target: Gal(b1-4)GlcNAc(b1-2)Man(a1-3)[Gal(b1-4)GlcNAc(b1-2)][GlcNAc(b1-4)]Man(b1-4)GlcNAc(b1-4)GlcNAc
Outline: as §1

[6] = target: Gal(b1-4)GlcNAc(b1-2)Man(a1-3)[GlcNAc(b1-2)Man(a1-6)]Man(b1-4)GlcNAc(b1-4)GlcNAc
Outline: as §1

[7] = target: Gal(b1-4)GlcNAc(b1-2)Man(a1-3)[Man(a1-6)]Man(b1-4)GlcNAc(b1-4)GlcNAc
Outline: as §1

[8] = target: Gal(b1-4)GlcNAc(b1-2)Man(a1-6)Man(b1-4)GlcNAc(b1-4)GlcNAc
Outline: as §1

[9] = target: Gal(b1-4)GlcNAc(b1-2)Man(a1-6)[GlcNAc(b1-2)Man(a1-3)]Man(b1-4)GlcNAc(b1-4)GlcNAc
Outline: as §1

[10] = target: Gal(b1-4)GlcNAc(b1-2)Man(a1-6)[Man(a1-3)]Man(b1-4)GlcNAc(b1-4)GlcNAc
Outline: as §1

[11] = target: Gal(b1-4)GlcNAc(b1-2)[Gal(b1-4)GlcNAc(b1-4)]Man(a1-3)[Gal(b1-4)GlcNAc(b1-2)Man(a1-6)]Man(b1-4)GlcNAc(b1-4)GlcNAc
Outline: as §1

[12] = target: Gal(b1-4)GlcNAc(b1-2)[Gal(b1-4)GlcNAc(b1-4)]Man(a1-3)[Gal(b1-4)GlcNAc(b1-2)[Gal(b1-4)GlcNAc(b1-6)]Man(a1-6)]Man(b1-4)GlcNAc(b1-4)GlcNAc
Outline: as §1

[13] = target: Gal(b1-4)GlcNAc(b1-2)[Gal(b1-4)GlcNAc(b1-4)]Man(a1-3)[GlcNAc(b1-4)][Gal(b1-4)GlcNAc(b1-2)Man(a1-6)]Man(b1-4)GlcNAc(b1-4)GlcNAc
Outline: as §1

[14] = target: Gal(b1-4)GlcNAc(b1-2)[Gal(b1-4)GlcNAc(b1-4)]Man(a1-3)[GlcNAc(b1-4)][Gal(b1-4)GlcNAc(b1-2)[Gal(b1-4)GlcNAc(b1-6)]Man(a1-6)]Man(b1-4)GlcNAc(b1-4)GlcNAc
Outline: as §1

[15] = target: Gal(b1-4)GlcNAc(b1-2)[Gal(b1-4)GlcNAc(b1-6)]Man(a1-6)[Gal(b1-4)GlcNAc(b1-2)Man(a1-3)]Man(b1-4)GlcNAc(b1-4)GlcNAc
Outline: as §1

[16] = target: Gal(b1-4)GlcNAc(b1-2)[Gal(b1-4)GlcNAc(b1-6)]Man(a1-6)[GlcNAc(b1-4)][Gal(b1-4)GlcNAc(b1-2)Man(a1-3)]Man(b1-4)GlcNAc(b1-4)GlcNAc
Outline: as §1

[17] = target: Gal(b1-4)GlcNAc(b1-3)Gal(b1-3)GlcNAc
Outline: as §1

[18] = target: Gal(b1-4)GlcNAc(b1-3)Gal(b1-4)Glc
Outline: as §1

[19] = target: Gal(b1-4)GlcNAc(b1-3)Gal(b1-4)GlcNAc
Outline: as §1

[20] = target: Gal(b1-4)GlcNAc(b1-3)Gal(b1-4)GlcNAc(b1-3)Gal(b1-4)GlcNAc
Outline: as §1

[21] = target: Gal(b1-4)GlcNAc(b1-3)Gal(b1-4)[Fuc(a1-3)GlcNAc(b1-6)]Gal(b1-4)Glc
Outline: as §1

[22] = target: Gal(b1-4)GlcNAc(b1-3)Gal(b1-4)[Fuc(a1-3)]GlcNAc(b1-3)Gal(b1-4)[Fuc(a1-3)]GlcNAc
Outline: as §1

[23] = target: Gal(b1-4)GlcNAc(b1-3)GalNAc
Outline: as §1

[24] = target: Gal(b1-4)GlcNAc(b1-3)[Gal(b1-4)GlcNAc(b1-6)]Gal(b1-4)GlcNAc
Outline: as §1

[25] = target: Gal(b1-4)GlcNAc(b1-3)[Gal(b1-4)GlcNAc(b1-6)]GalNAc
Outline: as §1

[26] = target: Gal(b1-4)GlcNAc(b1-3)[GlcNAc(b1-6)]Gal(b1-4)GlcNAc
Outline: as §1

[27] = target: Gal(b1-4)GlcNAc(b1-6)Gal(b1-4)GlcNAc
Outline: as §1

[28] = target: Gal(b1-4)GlcNAc(b1-6)Gal(b1-4)GlcNAc(b1-6)GalNAc
Outline: as §1

[29] = target: Gal(b1-4)GlcNAc(b1-6)GalNAc
Outline: as §1

[30] = target: Gal(b1-4)GlcNAc(b1-6)[Gal(b1-3)]GalNAc
Outline: as §1

Gal(b1-6)Gal = target: Gal(b1-6)Gal
Outline: as §1

Gal3S(b1-3)GalNAc = target: Gal3S(b1-3)GalNAc
Outline: as §1

Gal3S(b1-3)GlcNAc = target: Gal3S(b1-3)GlcNAc
Outline: as §1

[31] = target: Gal3S(b1-3)[Fuc(a1-4)]GlcNAc
Outline: as §1

B1: BC2L-D C-terminal domain (Burkholderia cenocepacia), Q39MQ9_BURS3 (protein)
chain: LVIVDAVTLLSAYPEASRDPAAPTVIDGRHLYVVSPGDAAQLGHNDSRLFTGLSPGDQLHLRETALALRAEVSVLFIRFALKDAGIVAPIELEVRDAATAVPDADDLLHPSCRPLKDHYWRSDVLAAGATTCTADFAVCDRDGTVSGYFRWETSIEIAGSQPDTKQPGFKPSSDRNGNFSLPPNTAFKAIFYANAADRQDLKLFIDDAPEPAATFVGNSEDGVRLFTLNSKGGKIRIEASANGRQSATDARLAPLSAGDTVWLGWLGAEDGADADYNDGIVILQWPIT
B1 was tested, and the “glycan array binding signal (z-score)” value (Gal(b1-4)Glc6S) was -0.242, the “glycan array binding signal (z-score)” value (Gal(b1-4)GlcNAc) was -0.218 and the “glycan array binding signal (z-score)” value [1] was -0.248. For the same binder, the “glycan array binding signal (z-score)” value (Gal(b1-4)GlcNAc(b1-2)Man) was -0.157, the “glycan array binding signal (z-score)” value [2] was -0.243 and the “glycan array binding signal (z-score)” value [3] was -0.232. The “glycan array binding signal (z-score)” value [4] was -0.236, the “glycan array binding signal (z-score)” value [5] was -0.166 and the “glycan array binding signal (z-score)” value [6] was -0.168. For the same binder, the “glycan array binding signal (z-score)” value [7] was 0.676, the “glycan array binding signal (z-score)” value [8] was -0.224 and the “glycan array binding signal (z-score)” value [9] was -0.17. For the same binder, the “glycan array binding signal (z-score)” value [10] was 1.08, the “glycan array binding signal (z-score)” value [11] was -0.218 and the “glycan array binding signal (z-score)” value [12] was -0.159. For the same binder, the “glycan array binding signal (z-score)” value [13] was -0.161, the “glycan array binding signal (z-score)” value [14] was -0.162 and the “glycan array binding signal (z-score)” value [15] was -0.162. The “glycan array binding signal (z-score)” value [16] was -0.163, the “glycan array binding signal (z-score)” value [17] was -0.244 and the “glycan array binding signal (z-score)” value [18] was -0.244. The “glycan array binding signal (z-score)” value [19] was -0.242, the “glycan array binding signal (z-score)” value [20] was -0.242 and the “glycan array binding signal (z-score)” value [21] was -0.165. The “glycan array binding signal (z-score)” value [22] was 0.073, the “glycan array binding signal (z-score)” value [23] was -0.242 and the “glycan array binding signal (z-score)” value [24] was -0.241. For the same binder, the “glycan array binding signal (z-score)” value [25] was -0.163, the “glycan array binding signal (z-score)” value [26] was -0.242 and the “glycan array binding signal (z-score)” value [27] was -0.248. For the same binder, the “glycan array binding signal (z-score)” value [28] was -0.305, the “glycan array binding signal (z-score)” value [29] was -0.2 and the “glycan array binding signal (z-score)” value [30] was -0.242. The “glycan array binding signal (z-score)” value (Gal(b1-6)Gal) was -0.164, the “glycan array binding signal (z-score)” value (Gal3S(b1-3)GalNAc) was -0.243 and the “glycan array binding signal (z-score)” value (Gal3S(b1-3)GlcNAc) was -0.203. The “glycan array binding signal (z-score)” value [31] was -0.075.
